According to US11618753B2 (priority 2018, dated 2023):

test system: MLKL phosphorylation, HT29-L23 human colorectal adenocarcinoma cells; assay: cells; settings: read-out: pMLKL HCS Cell Assay (IC50, uM)

Structure (SMILES)	IC50
CC(C)CC(=O)N1C[C@H](F)[C@H](NC(=O)c2cc(-c3cc(C(F)(F)F)c4c(N)ncnn34)ccc2OC(F)(F)F)C1 [Example 1047, 5-[4-amino-5-(trifluoromethyl)pyrrolo[2,1-f][1,2,4]triazin-7-yl]-N-[(3R,4S)-4-fluoro-1-(3-methylbutanoyl)pyrrolidin-3-yl]-2-(trifluoromethoxy)benzamide]	0.091 µM
Nc1ncnn2c(-c3ccc(OC(F)(F)F)c(C(=O)N[C@@H]4CN(C(=O)CC(F)(F)F)C[C@@H]4F)c3)cc(C(F)(F)F)c12 [Example 1049, 5-[4-amino-5-(trifluoromethyl)pyrrolo[2,1-f][1,2,4]triazin-7-yl]-N-[(3R,4S)-4-fluoro-1-(3,3,3-trifluoropropanoyl)pyrrolidin-3-yl]-2-(trifluoromethoxy)benzamide]	0.1 µM
CC(CC(=O)N1C[C@H](F)[C@H](NC(=O)c2cc(-c3cc(C(F)(F)F)c4c(N)ncnn34)ccc2OC(F)(F)F)C1)C(F)(F)F (stereo partly drawn) [Example 1050, 5-[4-amino-5-(trifluoromethyl)pyrrolo[2,1-f][1,2,4]triazin-7-yl]-N-[(3R,4S)-4-fluoro-1-(4,4,4-trifluoro-3-methylbutanoyl)pyrrolidin-3-yl]-2-(trifluoromethoxy)benzamide]	0.07 µM
CCC(O)(C(=O)N1C[C@H](F)[C@H](NC(=O)c2cc(-c3cc(C(F)(F)F)c4c(N)ncnn34)ccc2OC(F)(F)F)C1)C(F)(F)F (stereo partly drawn) [Example 1051, 5-[4-amino-5-(trifluoromethyl)pyrrolo[2,1-f][1,2,4]triazin-7-yl]-N-[(3R,4S)-4-fluoro-1-[2-hydroxy-2-(trifluoromethyl)butanoyl]pyrrolidin-3-yl]-2-(trifluoromethoxy)benzamide]	0.035 µM
Nc1ncnn2c(-c3ccc(OC(F)(F)F)c(C(=O)N[C@@H]4CN(C(=O)C5(F)CC5)C[C@@H]4F)c3)cc(C(F)(F)F)c12 [Example 1052, 5-[4-amino-5-(trifluoromethyl)pyrrolo[2,1-f][1,2,4]triazin-7-yl]-N-[(3R,4S)-4-fluoro-1-(1-fluorocyclopropanecarbonyl)pyrrolidin-3-yl]-2-(trifluoromethoxy)benzamide]	0.263 µM
Nc1ncnn2c(-c3ccc(OC(F)(F)F)c(C(=O)N[C@@H]4CN(C(=O)C5CC(F)C5)C[C@@H]4F)c3)cc(C(F)(F)F)c12 (stereo partly drawn) [Example 1053, 5-[4-amino-5-(trifluoromethyl)pyrrolo[2,1-f][1,2,4]triazin-7-yl]-N-[(3R,4S)-4-fluoro-1-(3-fluorocyclobutanecarbonyl)pyrrolidin-3-yl]-2-(trifluoromethoxy)benzamide]	0.231 µM
Nc1ncnn2c(-c3ccc(OC(F)(F)F)c(C(=O)N[C@@H]4CN(C(=O)C5CC(F)(F)C5)C[C@@H]4F)c3)cc(C(F)(F)F)c12 [Example 1054, 5-[4-amino-5-(trifluoromethyl)pyrrolo[2,1-f][1,2,4]triazin-7-yl]-N-[(3R,4S)-1-(3,3-difluorocyclobutanecarbonyl)-4-fluoropyrrolidin-3-yl]-2-(trifluoromethoxy)benzamide]	0.083 µM
Nc1ncnn2c(-c3ccc(OC(F)(F)F)c(C(=O)N[C@@H]4CN(C(=O)C5CCC(F)(F)C5)C[C@@H]4F)c3)cc(C(F)(F)F)c12 (stereo partly drawn) [Example 1055, 5-[4-amino-5-(trifluoromethyl)pyrrolo[2,1-f][1,2,4]triazin-7-yl]-N-[(3R,4S)-1-(3,3-difluorocyclopentanecarbonyl)-4-fluoropyrrolidin-3-yl]-2-(trifluoromethoxy)benzamide]	0.053 µM
CC(C)(F)C(=O)N1C[C@H](F)[C@H](NC(=O)c2cc(-c3cc(C(F)(F)F)c4c(N)ncnn34)ccc2OC(F)(F)F)C1 [Example 1056, 5-[4-amino-5-(trifluoromethyl)pyrrolo[2,1-f][1,2,4]triazin-7-yl]-N-[(3R,4S)-4-fluoro-1-(2-fluoro-2-methylpropanoyl)pyrrolidin-3-yl]-2-(trifluoromethoxy)benzamide]	0.295 µM
Nc1ncnn2c(-c3ccc(OC(F)(F)F)c(C(=O)N[C@@H]4CN(C(=O)C5CCC(F)(F)CC5)C[C@@H]4F)c3)cc(C(F)(F)F)c12 [Example 1057, 5-[4-amino-5-(trifluoromethyl)pyrrolo[2,1-f][1,2,4]triazin-7-yl]-N-[(3R,4S)-1-(4,4-difluorocyclohexanecarbonyl)-4-fluoropyrrolidin-3-yl]-2-(trifluoromethoxy)benzamide]	0.109 µM
CC(C(=O)N1C[C@H](F)[C@H](NC(=O)c2cc(-c3cc(C(F)(F)F)c4c(N)ncnn34)ccc2OC(F)(F)F)C1)C(F)(F)F (stereo partly drawn) [Example 1058, 5-[4-amino-5-(trifluoromethyl)pyrrolo[2,1-f][1,2,4]triazin-7-yl]-N-[(3R,4S)-4-fluoro-1-(3,3,3-trifluoro-2-methylpropanoyl)pyrrolidin-3-yl]-2-(trifluoromethoxy)benzamide]	0.244 µM
Nc1ncnn2c(-c3ccc(OC(F)(F)F)c(C(=O)N[C@@H]4CN(C(=O)C5CC5(F)F)C[C@@H]4F)c3)cc(C(F)(F)F)c12 (stereo partly drawn) [Example 1059, 5-[4-amino-5-(trifluoromethyl)pyrrolo[2,1-f][1,2,4]triazin-7-yl]-N-[(3R,4S)-1-(2,2-difluorocyclopropanecarbonyl)-4-fluoropyrrolidin-3-yl]-2-(trifluoromethoxy)benzamide]	0.248 µM
Nc1ncnn2c(-c3ccc(OC(F)(F)F)c(C(=O)N[C@@H]4CN(C(=O)CC(O)(C(F)(F)F)C(F)(F)F)C[C@@H]4F)c3)cc(C(F)(F)F)c12 [Example 1060, 5-[4-amino-5-(trifluoromethyl)pyrrolo[2,1-f][1,2,4]triazin-7-yl]-N-[(3R,4S)-4-fluoro-1-[4,4,4-trifluoro-3-hydroxy-3-(trifluoromethyl)butanoyl]pyrrolidin-3-yl]-2-(trifluoromethoxy)benzamide]	0.08 µM
C[C@@](O)(C(=O)N1C[C@H](F)[C@H](NC(=O)c2cc(-c3cc(C(F)(F)F)c4c(N)ncnn34)ccc2OC(F)(F)F)C1)C(F)(F)F [Example 1061, 5-[4-amino-5-(trifluoromethyl)pyrrolo[2,1-f][1,2,4]triazin-7-yl]-N-[(3R,4S)-4-fluoro-1-[(2R)-3,3,3-trifluoro-2-hydroxy-2-methylpropanoyl]pyrrolidin-3-yl]-2-(trifluoromethoxy)benzamide]	0.0071 µM
CC(O)(CC(=O)N1C[C@H](F)[C@H](NC(=O)c2cc(-c3cc(C(F)(F)F)c4c(N)ncnn34)ccc2OC(F)(F)F)C1)C(F)(F)F (stereo partly drawn) [Example 1062, 5-[4-amino-5-(trifluoromethyl)pyrrolo[2,1-f][1,2,4]triazin-7-yl]-N-[(3R,4S)-4-fluoro-1-(4,4,4-trifluoro-3-hydroxy-3-methylbutanoyl)pyrrolidin-3-yl]-2-(trifluoromethoxy)benzamide]	0.098 µM
CC(C)(F)C(=O)N1C[C@H](F)[C@H](NC(=O)c2cc(-c3cc(C(F)(F)F)c4c(N)ncnn34)ccc2OCC(F)(F)F)C1 [Example 1063, 5-[4-amino-5-(trifluoromethyl)pyrrolo[2,1-f][1,2,4]triazin-7-yl]-N-[(3R,4S)-4-fluoro-1-(2-fluoro-2-methylpropanoyl)pyrrolidin-3-trifluoroethoxy)benzamide]	0.414 µM
Nc1ncnn2c(-c3ccc(OCC(F)(F)F)c(C(=O)N[C@@H]4CN(C(=O)C5CCC(F)(F)C5)C[C@@H]4F)c3)cc(C(F)(F)F)c12 (stereo partly drawn) [Example 1064, 5-[4-amino-5-(trifluoromethyl)pyrrolo[2,1-f][1,2,4]triazin-7-yl]-N-[(3R,4S)-1-(3,3-difluorocyclopentanecarbonyl)-4-fluoropyrrolidin-3-yl]-2-(2,2,2-trifluoroethoxy)benzamide]	0.103 µM
